Assay results reported in PubChem BioAssay AID602310 (National Center for Advancing Translational Sciences (NCATS), 2012).
In all, about 410,000 compounds went through this assay and about 310 (0.076%) were called active. This list was built around the results that the source calls inconclusive (neither active nor inactive); the mix of calls is not that of the screen. The call rests on the fitted dose curve; in most records, active means well fitted curve in the direction sought with a large enough effect; inconclusive means small, poorly fitted or top-dose-only effect; inactive means flat fitted curve, though single readings scatter. Potencies beside an inconclusive call are fits to weak or partial responses and may not hold up.

molecular target: DNA dC->dU-editing enzyme APOBEC-3G (Homo sapiens) (UniProt Q9HC16); assay: qHTS for Inhibitors of Vif-A3G Interactions: qHTS; conditions: HeLa A3G-eYFP + Vif (tagged APOBEC3G with the HIV-1 protein that degrades it), YFP fluorescence, overnight; series mostly up to 46.1 µM; activity, negative = active: at the top concentration; further: nearly all actives have a fitted effect of over 60% in size;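 on activity, negative = active: hits raise eYFP signal because A3G escapes Vif-driven loss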
Outline: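 HeLa cells stably expressing Vif and C-terminally eYFP-tagged A3G, seeded overnight at 37 deg C, then exposed to compound by pintool overnight at 37 deg C. Rise in yellow fluorescence (Ex 488/Em 500-530, Acumen) marks blocked Vif-driven A3G degradation.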
On the % scale 0 is the no-effect control and ±100 the full control effect; potency means the concentration at half of the fitted maximal effect; tags describe the fitted curve by direction and shape.

Sequence of UniProt Q9HC16 (Q9HC16 whole entry, looked up): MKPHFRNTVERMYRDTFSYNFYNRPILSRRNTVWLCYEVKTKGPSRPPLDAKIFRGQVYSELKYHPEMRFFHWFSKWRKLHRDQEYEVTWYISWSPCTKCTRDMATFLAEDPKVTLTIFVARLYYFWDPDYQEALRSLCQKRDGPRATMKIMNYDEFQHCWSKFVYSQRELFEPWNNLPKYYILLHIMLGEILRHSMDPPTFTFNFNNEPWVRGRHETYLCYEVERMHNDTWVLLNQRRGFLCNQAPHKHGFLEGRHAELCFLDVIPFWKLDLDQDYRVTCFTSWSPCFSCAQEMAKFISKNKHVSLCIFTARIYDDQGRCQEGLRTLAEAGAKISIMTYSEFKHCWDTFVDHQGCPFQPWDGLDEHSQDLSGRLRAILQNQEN

Row | Compound | activity, negative = active | Potency
1 | COc1ccccc1C(=O)Nc1cc2c(cc1N1CCOCC1)n(C)c(=O)n2C | inactive: -2.93% | 
2 | Oc1ccc(N=Cc2ccc(O)c(O)c2)cc1 |  | inconclusive: 35.5 µM [inhibitor, single point]
3 | O=C(NC(=S)NCc1ccc(F)cc1)c1ccccc1 | inactive: -0.405% | 
4 | C(=C\c1c[nH]c2ccccc12)/c1nccc2ccccc12 |  | active: 8.91 µM
5 | COc1ccc(C(=O)NCC(=O)N/N=C/c2ccc([N+](=O)[O-])o2)cc1OC |  | inconclusive: 15.8 µM [inhibitor, single point]
6 | Cc1nc2sc3c(NCc4ccco4)ncnc3c2c2c1COC(C)(C)C2 |  | inconclusive: 17.8 µM [inhibitor, single point]
7 | COC1=CC(=O)C(OC)=C(OC)C1=O |  | inconclusive: 31.6 µM [inhibitor, single point]
8 | CCOC(=O)N1C(=O)[C@@](CC)(c2ccccc2)N1C(=O)OCC | inactive: -18.3% | 
9 | CCOC(=O)C1=C(O)c2ccccc2C(=O)/C1=C\c1ccc(CC)cc1 |  | inconclusive: 20 µM [inhibitor, partial curve, poor fit]
10 | COC(=O)CS(=O)(=O)c1nnc([C@H](Cc2ccccc2)NC(=O)OC(C)(C)C)o1 |  | inconclusive: 17.8 µM [inhibitor, single point]
11 | Fc1cc(Br)ccc1NC(=S)NCCc1ccccc1 |  | inconclusive: 25.1 µM [inhibitor, single point]
12 | COc1cccc(NC(=O)c2ccccc2-c2nc(-c3ccccc3)no2)c1 | inactive: -10.8% | 
13 | COc1ccc(/C=C/C(=O)c2cc(F)ccc2OC(=O)c2ccccc2OC)cc1OC |  | inconclusive: 5.62 µM [inhibitor, single point]
14 | O=C(OCc1ccc([N+](=O)[O-])cc1)C1CC(=O)N(Cc2ccccc2)C1 (stereo not drawn) | inactive: 0.0605% | 
15 | CCN(CC)c1ccc(N=Cc2ccc([N+](=O)[O-])o2)cc1 |  | inconclusive: 14.1 µM [inhibitor, single point]
16 | COc1cc(N(C(=O)Cc2cccs2)C(C(=O)NC2CCCCC2)c2cccc(OC)c2OC)ccc1-n1cnnn1 (stereo not drawn) | inactive: -2.55% | 
17 | CCOc1ccc(N/C=C/C(=O)c2cc(OC)c(OC)c(OC)c2)cc1 |  | inconclusive: 11.2 µM [inhibitor, partial curve]
18 | N#CC(=C(O)COC(=O)c1ccc2c(c1)OCCO2)c1nc2ccccc2[nH]1 |  | inconclusive: 22.4 µM [inhibitor, single point]
19 | COc1cc(OC)c(/C=C/c2ccnc3ccccc23)c(OC)c1 |  | inconclusive: 10 µM [inhibitor, partial curve, poor fit]
20 | CN1CCN(CCCNC(=O)c2ccc(/C=C3\Oc4ccccc4N(Cc4ccccc4F)C3=O)cc2)CC1 |  | inconclusive: 35.5 µM [inhibitor, single point]
21 | COC(=O)COc1cccc2c(=O)n(CC(=O)NCc3ccccc3)ccc12 |  | inconclusive: 2.51 µM [inhibitor, full curve, poor fit]
22 | COc1ccc(CC2C(=O)NC(C)C(=O)N(C)C3Cc4ccc(cc4)Oc4cc(ccc4O)CC(C(=O)NC(C)C(=O)NC(C)C(=O)N2C)N(C)C3=O)cc1 (stereo not drawn) | inactive: -14.3% | 
23 | Cc1c2ccncc2cc2c1[nH]c1ccccc12 |  | inconclusive: 25.1 µM [inhibitor, single point]

Row | Compound | activity, negative = active | Potency
24 | C=C1C=C(C(F)F)n2ncc(C(=O)N3CCCCC3)c2N1 | inactive: 1.36% | 
25 | Cc1cc(C)c(NC(=O)Cn2c(=O)n(Cc3ccco3)c(=O)c3ccc(C(=O)NC4CCCC4)cc32)c(C)c1 |  | inconclusive: 15.8 µM [inhibitor, single point]
26 | O=C(CNC(=O)c1ccco1)Nc1cc(Cl)ccc1N1CCOCC1 |  | inconclusive: 5.62 µM [inhibitor, single point]
27 | CCOC(=O)c1c(NC(=O)CSc2nc3ccc(OC)cc3[nH]2)sc2c1CC(C)(C)NC2(C)C |  | inconclusive: 35.5 µM [inhibitor, single point]
28 | Cc1nc(SCc2ccc(O)c([N+](=O)[O-])c2)n[nH]1 | inactive: -2.69% | 
29 | CCOc1ccc2nc(N3C(=O)CNC3=S)sc2c1 | inactive: -4% | 
30 | COc1ccc(NS(=O)(=O)c2cc(OC)ccc2NC(=O)c2cc(C)oc2C)cc1 |  | inconclusive: 2.51 µM [inhibitor, full curve, poor fit]
31 | CS(=O)(=O)c1ncc(Cl)c(C(=O)Nc2ccc(N3CCOCC3)cc2)n1 |  | inconclusive: 35.5 µM [inhibitor, single point]
32 | O=C/C(=C\Nc1ccccn1)c1nc2cc(Cl)ccc2o1 | inactive: -14.2% | 
33 | Cc1cccc(NCC(=O)N/N=C\c2c[nH]c3ccccc23)c1 |  | inconclusive: 11.2 µM [inhibitor, partial curve, poor fit]
34 | COc1ccc(NC(=O)C2Cc3c(-c4cccc(C(C)=O)c4)ccnc3O2)cc1 (stereo not drawn) |  | inconclusive: 2.82 µM [inhibitor, partial curve]
35 | Cc1ccc(-c2nc3ccccc3o2)cc1NC(=S)NC(=O)/C=C/c1ccco1 |  | inconclusive: 6.31 µM [inhibitor, partial curve, poor fit]
36 | CCC(Cn1nnc2ccccc2c1=O)NC(=O)Nc1ccc(C)c(C)c1 (stereo not drawn) | inactive: 4.89% | 
37 | O=[N+]([O-])c1ccc(N/N=C/c2c[nH]c3ccccc23)c(S(=O)(=O)Nc2ccc(Cl)cc2)c1 |  | inconclusive: 20 µM [inhibitor, partial curve, poor fit]
38 | CCOc1cc2c(cc1O)C(=NOC)CC1C2CCC2(C)C(O)CCC12 (stereo not drawn) |  | inconclusive: 1 µM [inhibitor, full curve, poor fit]
39 | N#C/C(=C\c1coc2ccc(O)cc2c1=O)C(=O)Nc1nc2ccccc2s1 |  | inconclusive: 22.4 µM [inhibitor, single point]
40 | NC(=O)N=Nc1c(O)n(Cc2ccccc2)c2ccc(Br)cc12 |  | inconclusive: 35.5 µM [inhibitor, single point]
41 | C[C@H](NC(=O)[C@@H]1Cc2ccccc2CN1)C(=O)NCC1CCCO1 (stereo partly drawn) | inactive: 0.886% | 
42 | CCCCCc1c2c(cc(O)c1C(=O)O)OC(=O)c1c(cc(OC)cc1C(=O)CCCC)O2 |  | inconclusive: 25.1 µM [inhibitor, single point]
43 | CCCN1CCC(=O)N(C(CSc2ccc(C)cc2)CC(C)C)CC1 (stereo not drawn) | inactive: 5.53% | 
44 | CCOC(=O)c1ccccc1OCc1cc(/C=N/n2cnnc2)ccc1OC |  | inconclusive: 17.8 µM [inhibitor, single point]
45 | CC(C)C(=O)Nc1nc2cc3c(cc2s1)OCO3 | inactive: 0.58% | 
46 | O=C(CCl)N1c2ccccc2Sc2ccc3ccccc3c21 |  | inconclusive: 11.2 µM [inhibitor, single point]

Row | Compound | activity, negative = active | Potency
47 | CC(=O)Oc1ccc(C(=O)[C@H]2[C@H]3C(=O)N(c4ccccc4)C(=O)[C@H]3[C@@H]3C=CC=NN32)cc1 | inactive: 0.957% | 
48 | CCN(CC)c1ccc(NC(=O)CSc2nc(C3CC3)nc3ccccc23)cc1C |  | inconclusive: 3.98 µM [inhibitor, full curve, poor fit]
49 | O=c1[nH]c2cc3c(cc2cc1CN(Cc1cccs1)Cc1nnnn1Cc1ccco1)OCCO3 |  | inconclusive: 35.5 µM [inhibitor, single point]
50 | O=C1C(O)CC2c3ccccc3CC3(CCCC3)N12 (stereo not drawn) |  | inconclusive: 35.5 µM [inhibitor, single point]
51 | COc1ccc(-c2noc(-c3ccoc3C)n2)cc1 |  | inconclusive: 11.2 µM [inhibitor, single point]
52 | CC(=O)NN1C(=O)/C(=C/c2ccc(Br)o2)SC1=S |  | inconclusive: 22.4 µM [inhibitor, single point]
53 | Cn1c(=O)c(Nc2ccc(Cl)cc2)c2c3c(cccc31)C(=O)c1ccccc1-2 |  | inconclusive: 6.31 µM [inhibitor, full curve]
54 | Clc1ccc(-c2noc(CSc3nnc(-c4ccncc4)n3-c3ccccc3)n2)cc1 | inactive: -0.239% | 
55 | CCOC(=O)c1c(S(=O)(=O)N2CCN(c3cc(Cl)ccc3C)CC2)c(C)n(C)c1C | inactive: 1.25% | 
56 | Cc1cc(C(=O)N/N=C/c2c3ccccc3cc3ccccc23)n[nH]1 |  | inconclusive: 5.62 µM [inhibitor, full curve]
57 | CN(C)N1C(N)=C(C#N)C(c2cccc3ccccc23)C2=C1CC(c1ccccc1)CC2=O (stereo not drawn) |  | inconclusive: 3.55 µM [inhibitor, full curve, poor fit]
58 | O=C(CSc1nc(-c2ccco2)cc(C(F)(F)F)n1)Nc1cccnc1 |  | inconclusive: 11.2 µM [inhibitor, partial curve, poor fit]
59 | CC1CCCC/C1=N\NC(=S)Nc1cccnc1 (stereo not drawn) | inactive: 10.2% | 
60 | COC(=O)c1ccc(NC(=O)C(c2ccccc2)N2Cc3ccccc3C2=O)cc1 (stereo not drawn) | inactive: -3.59% | 
61 | CN(C)c1ccc(/C=C(/C#N)C(=O)Nc2nc3c(s2)CCN(Cc2ccccc2)C3)cc1 |  | active: 5.62 µM
62 | Cc1nc(Sc2nnnn2C)c2c3c(sc2n1)CCC3 |  | inconclusive: 0.562 µM [inhibitor, full curve, poor fit]
63 | CCOc1ccc(-c2nnn(CC(=O)NCc3ccccc3)n2)cc1 |  | inconclusive: 3.55 µM [inhibitor, full curve, poor fit]
64 | Cc1cc(C)c2nc(NNC(=O)c3ccc(S(=O)(=O)N4CC(C)CC(C)C4)cc3)sc2c1 (stereo not drawn) |  | inconclusive: 35.5 µM [inhibitor, single point]
65 | CCC(=O)c1ccc(OCC(O)CN(CCc2ccccc2)Cc2ccccc2)cc1 (stereo not drawn) | inactive: -0.989% | 
66 | CC1CC(=O)N(c2ccc(N(C)Cc3ccccc3)c([N+](=O)[O-])c2)C1=O (stereo not drawn) | inactive: -0.738% | 
67 | COc1cc(C(=O)OCc2cc(=O)n3ccsc3n2)cc(OC)c1OC |  | inconclusive: 1.41 µM [inhibitor, full curve, poor fit]
68 | CC(C)n1c(NCc2ccc(N(C)C)cc2)nc2ccccc21 | inactive: -1.8% | 
